Out of some 52,000 compounds screened, about 1,700 (3.3%) were called active. Rule as the data show it: active = survival mostly below about 52% (no sharp cut-off); inactive = mostly above about 56%. Some of the results follow.
The compounds below were run on Wild type (assay: S. aureus survival, RN4220 and DeltatarO strains – OD600, teichoic acid synthesis inhibitors, primary screen (AID 463173)). Details: S. aureus RN4220 wild type/DeltatarO growth, OD600, 18 h, hits give low values, screened at 18.75 µg/mL (by protocol).
For `CCCN(c1ccccc1CC)S(=O)(=O)c1ccc2c(c1)CC(C)N2C(=O)C1CC1` (stereo unspecified), the survival was inactive: 90%. In the case of `Cc1ccc(N=Cc2ccc(C)o2)cc1`, the survival is reported as inactive: 112%. `COCCNC(=O)CCCN1C(=O)c2ccccc2Sc2ncccc21` was tested, and the survival was inactive: 87%. In the case of `O=S(=O)(c1cccc(F)c1)N1CCC(c2nc3ccccc3s2)CC1`, the survival is reported as inactive: 88%. In the case of `Cc1ccc(NC(=O)c2oc3ccc(S(=O)(=O)N(C)C4CCCCC4)cc3c2C)cc1Cl`, the survival is reported as inactive: 66%. `Cc1ccc(-n2c(C)cc(CO)c2C)cc1` was tested, and the survival was inactive: 100%. For `COc1ccc(-c2nc(CSCC(=O)N3CCN(c4ccc(OC)cc4)CC3)c(C)o2)cc1`, the survival was inactive: 81%. For `CC1CCCCN1C(=O)c1ccccc1F` (stereo unspecified), the survival was inactive: 95%. With `CC(=O)N1CCc2cc(S(=O)(=O)NC(CC(C)C)C(=O)NCc3ccccc3)ccc21` (stereo unspecified) the survival was inactive: 73%. In the case of `O=c1c(=O)n(-c2cccc(Cl)c2)ccn1Cc1cccc(F)c1`, the survival is reported as inactive: 86%. For `COc1cccc2c1cc1c(=O)n(CC(=O)NC3CC3)nc(C)n12`, the survival was inactive: 80%. `CCCCN(CCCC)CC(O)Cn1cc(/C=C/C(=O)c2ccccc2)c2ccccc21` (stereo unspecified) was tested, and the survival was active: 18%. For `COc1cccc(-c2nc(CSCC(=O)NCCc3ccc(Cl)cc3)c(C)o2)c1`, the survival was active: -1%. With `Cc1nnc(SCC(=O)Nc2ccc(Br)cc2)[nH]c1=O` the survival was inactive: 114%. In the case of `O=c1c2c(nc3n1CCCS3)-c1ccccc1CC21CCCC1`, the survival is reported as inactive: 107%. In the case of `COc1ccc(C)cc1Nc1nc(-c2cccc(Cl)c2)c2c(n1)-c1ccccc1OC2`, the survival is reported as inactive: 81%. With `COc1cc(-c2nc(Cn3nnc(C(=O)Nc4cc(C)cc(C)c4)c3C)c(C)o2)cc(OC)c1OC` the survival was inactive: 70%. With `Cc1ccc(-c2nc(N3CCN(c4ccccc4Cl)CC3)c3ccccc3n2)cc1` the survival was inactive: 62%. With `CCCCC(CC)CNC(=O)CCCn1c(=O)[nH]c2ccsc2c1=O` (stereo unspecified) the survival was inactive: 118%. In the case of `CCOc1ccc(NC(=O)C(NC(=O)C2CCC(C)CC2)C(C)C)cc1` (stereo unspecified), the survival is reported as inactive: 76%. `CCOC(=O)c1cc(-c2ccccc2)n(CC(=O)N(C)c2ccc(OC)cc2)c1C` was tested, and the survival was inactive: 94%. In the case of `NNC(=O)c1c(O)c2ccccc2[nH]c1=O`, the survival is reported as inactive: 84%. In the case of `CN(C)S(=O)(=O)c1ccc(C(=O)N2CC(=O)Nc3ccc(Br)cc3C2c2ccc(F)cc2)cc1` (stereo unspecified), the survival is reported as inactive: 98%. With `Cc1ccc(CNC(=O)c2ccc(Cn3c(SCc4ccccc4F)nc4cccnc43)cc2)cc1` the survival was inactive: 73%. For `CC1CCN(C(=O)Cn2c(=O)oc3cc(S(=O)(=O)N4CCCCC4)ccc32)CC1`, the survival was inactive: 83%. For `CCOc1cc(CNc2ccc(O)cc2)ccc1OCc1ccc(Cl)cc1`, the survival was active: 10%. `COc1ccc(CNC(=O)CN(c2ccccc2)S(=O)(=O)N(C)C)cc1` was tested, and the survival was inactive: 141%. `CCOC(=O)c1cc2c(=O)n3ccccc3nc2n(CCCOC)c1=NC(=O)C(C)Oc1ccccc1` (stereo unspecified) was tested, and the survival was inactive: 71%. For `Cc1cccc(-n2c(=O)c3c4c(sc3n3cnnc23)CCCC4)c1`, the survival was inactive: 72%. `CCN1CCN(c2c(S(=O)(=O)c3ccc(C)c(C)c3)cnc3cc(OC)c(OC)cc23)CC1` was tested, and the survival was inactive: 78%. `Cc1cc(C)cc(NC2=CC(c3cccc(F)c3)N(c3cc(C)cc(C)c3)C2=O)c1` (stereo unspecified) was tested, and the survival was inactive: 78%. For `Cc1cc(=O)n(Cc2cccc(Cl)c2)c2c1c(C)nn2-c1ccccc1`, the survival was inactive: 55%. `CCN(CC)C(=O)c1sc2c(c1C)c(=O)n(-c1ccccc1)c(=O)n2CC(=O)Nc1ccc(C)cc1C` was tested, and the survival was inactive: 78%. In the case of `CCOc1ccc(CC(=O)NCCc2sc3nc(-c4ccc(OC)cc4)nn3c2C)cc1`, the survival is reported as inactive: 93%. In the case of `COc1ccc(NC(=O)c2ccco2)cc1NC(=O)c1cccc(F)c1`, the survival is reported as inactive: 104%. In the case of `Cc1ccc(S(=O)(=O)Nc2nc3c(s2)C(=O)CC(C)(C)C3)cc1`, the survival is reported as inactive: 119%. With `CCCCSc1ncnc2c1c(-c1ccccc1)cn2-c1cccc(F)c1` the survival was inactive: 84%. For `CCN(CC)CCNC(=O)c1ccc2c(c1)sc1nc(-c3ccc(F)cc3)cn12`, the survival was inactive: 27%. `Cc1cc2n(n1)C(c1ccccc1)Nc1ccccc1-2` (stereo unspecified) was tested, and the survival was inactive: 123%. `CCN(CC)S(=O)(=O)c1nnc(NC(=O)COc2ccc(Cl)cc2)s1` was tested, and the survival was inactive: 86%. With `O=C1c2ccccc2CN1c1ccccc1` the survival was inactive: 107%. `CC(=O)Nc1cc(NC(C)=O)cc(-c2nc3ccccc3[nH]2)c1` was tested, and the survival was inactive: 69%. For `CCOC(=O)Cn1cnc2onc(-c3ccc(F)cc3)c2c1=O`, the survival was inactive: 132%. In the case of `COc1ccc(C(CNC(=O)COc2ccc(Cl)c(C)c2)N2CCOCC2)cc1` (stereo unspecified), the survival is reported as inactive: 74%. For `Cc1cc(C)cc(NS(=O)(=O)c2ccc3c(c2)NC(=O)C(C)S3)c1` (stereo unspecified), the survival was active: 12%. For `COc1ccc(CN(C(=O)c2ccco2)c2ccccc2)cc1`, the survival was inactive: 112%. For `Cc1ccc(NCc2cc(=O)[nH]c3ccccc23)cc1`, the survival was inactive: 112%. In the case of `CCOC(=O)c1c(C)oc2nc(C)nc(Nc3ccc(CC)cc3)c12`, the survival is reported as inactive: 115%. `CCn1c(C(=O)N2CCC(C(=O)NCCc3ccc(OC)cc3OC)CC2)cc2sccc21` was tested, and the survival was inactive: 121%. With `COc1cccc2c1Oc1ncccc1N(C(=O)Nc1ccc(F)c(Cl)c1)C2` the survival was inactive: 131%. With `CCOC(=O)C(CC)Sc1ccc2nnc(CCNS(=O)(=O)c3ccc(C)cc3)n2n1` (stereo unspecified) the survival was inactive: 79%. With `Cc1c(C(=O)NCc2ccccc2Br)oc2c1-c1[nH]ncc1CC2` the survival was inactive: 82%. With `CCN1CCN(c2c(S(=O)(=O)c3ccc(OC)cc3)cnc3cc(OC)c(OC)cc23)CC1` the survival was inactive: 77%. For `CCc1ccc(S(=O)(=O)c2nnn3c2nc(NC2CCCCCC2)c2sccc23)cc1`, the survival was inactive: 85%. For `COc1ccc(NC(=O)c2ccc(-c3nc(CSc4ccccc4)c(C)o3)cc2)cc1OC`, the survival was inactive: 56%. `COc1ccccc1Cc1nc2ccccc2[nH]c1=O` was tested, and the survival was inactive: 69%. With `Cc1ccc(C)c(CN2C(=O)c3ccccc3S(=O)c3ccc(C(=O)NCc4ccccc4)cc32)c1` (stereo unspecified) the survival was inactive: 97%. `COc1ccc(OC)c(NC(=O)Cn2c(=O)n(Cc3ccccc3)c(=O)c3ccccc32)c1` was tested, and the survival was inactive: 95%. For `O=C(CN1CCCC1)N1c2ccccc2Sc2ccccc21`, the survival was inactive: 108%. With `CCn1cc(C(=O)N2CCN(c3cccc(Cl)c3)CC2)c(=O)c2cc(S(=O)(=O)N3CCCCC3)ccc21` the survival was inactive: 77%. With `COc1cc(OC)cc(C(=O)Nc2ccc3nc(N4CCCCC4)cc(C)c3c2)c1` the survival was inactive: 56%. In the case of `COc1ccc(OC)c(NC(=O)N2CCN(S(=O)(=O)c3ccc4c(ccn4C)c3)CC2)c1`, the survival is reported as inactive: 65%. In the case of `COc1ccc(C(CNC(=O)c2oc3ccc(C)cc3c2C)N2CCOCC2)cc1` (stereo unspecified), the survival is reported as inactive: 72%. In the case of `CCCn1c(-c2ccc(S(=O)(=O)N3CCOCC3)cc2)csc1=Nc1ccc(OCC)cc1`, the survival is reported as inactive: 98%. With `CC(C)Cn1c(=O)c2ccccc2n2c(CCC(=O)N3CCN(c4ccccc4F)CC3)nnc12` the survival was inactive: 127%. With `COc1ccc(C(=O)C[N+]2=C(C)c3ccc(C)n3CC2)cc1` the survival was inactive: 110%. With `COc1ccc(Cl)cc1NC(=O)CN(C(=O)c1ccco1)C1CCCCC1` the survival was inactive: 125%. `CCCSCCCNC(=O)C1CCN(c2nn3cc(-c4ccc(F)cc4)nc3s2)CC1` was tested, and the survival was inactive: 75%. For `O=C(NCc1ccccc1Cl)C(=O)NCC(c1cccs1)S(=O)(=O)c1cccs1` (stereo unspecified), the survival was inactive: 69%. In the case of `Cc1ccc2nc(-c3ccc(O)cc3)c(Nc3ccc4c(c3)OCCO4)n2c1`, the survival is reported as inactive: 65%. `COC(=O)c1ccccc1NC(=O)Cn1c(=O)n(Cc2ccc(C(=O)NCc3ccc4c(c3)OCO4)cc2)c(=O)c2ccccc21` was tested, and the survival was inactive: 86%. For `CCOC(=O)CCc1c(C)nc(SCC(=O)O)c(C#N)c1C`, the survival was inactive: 98%. `CCC1CCCCN1CCCNC(=O)c1cc2c(Cl)nc3ccccc3c2s1` (stereo unspecified) was tested, and the survival was inactive: 85%. `Cc1ccc(C)n1-c1nnc(N2CCCC(C(=O)Nc3ccc(C(C)C)cc3)C2)s1` (stereo unspecified) was tested, and the survival was inactive: 88%. For `CC(C)(C)OC(=O)N1CC2C(C1)C2NC(=O)c1nsc(Cl)c1Cl` (stereo unspecified), the survival was inactive: 109%. In the case of `Cc1ccc(C)c(N2C(=O)N(Cc3cc(=O)n4ccccc4n3)c3ccccc3S2(=O)=O)c1`, the survival is reported as inactive: 82%. `CCOC(=O)c1c(C)oc2ncnc(Nc3ccc(OCC)cc3)c12` was tested, and the survival was inactive: 72%. `COc1cccc(C(=O)c2sc3nc(-c4ccccc4)cc(C(F)(F)F)c3c2N)c1` was tested, and the survival was inactive: 38%. In the case of `CCn1c(SCCN2CCCC2)nnc1C1CCCN(C(=O)c2ccc3c(c2)OCO3)C1` (stereo unspecified), the survival is reported as inactive: 114%. `Cc1ccc(CNC(=O)c2ccc3c(c2)nc(C)n3-c2cc(C)cc(C)c2)cc1` was tested, and the survival was inactive: 68%. In the case of `O=C(COc1ccccc1F)Nc1ccc(-c2nc3ccccc3s2)cc1`, the survival is reported as inactive: 90%. In the case of `CCc1cccc(NC(=O)Nc2csc3c2CCCC3)c1`, the survival is reported as inactive: 134%. `O=C(CN1C(=O)CCc2cc(S(=O)(=O)N3CCOCC3)ccc21)NCc1ccc(F)cc1` was tested, and the survival was inactive: 78%. In the case of `COc1cc(C)ccc1OCCSc1nc2ccc(NC(=O)c3ccc(F)cc3)cc2s1`, the survival is reported as inactive: 71%. `CCCCOc1ccc(C(=O)Nc2ccc(-c3nc4ccccc4s3)cc2C)cc1` was tested, and the survival was inactive: 96%. `Cn1ccc2cc(S(=O)(=O)N3CCC(C(=O)NCCc4ccccc4)CC3)ccc21` was tested, and the survival was inactive: 72%. For `N#Cc1ccccc1NC(=O)Cn1cnc2onc(-c3cccc(F)c3)c2c1=O`, the survival was inactive: 105%. For `Cc1ccc(N(CC(=O)NCCc2ccccc2)S(=O)(=O)N(C)C)cc1`, the survival was inactive: 84%. In the case of `COc1cccc(NC(=O)CNC(=O)Cn2c(C)cc3ccccc3c2=O)c1`, the survival is reported as inactive: 96%. `O=C(Nc1cccc(Cl)c1)N1CCC(n2nnc3cc(F)ccc32)CC1` was tested, and the survival was inactive: 107%. With `COc1ccc(Cl)cc1NC(=O)Cn1cc(C(=O)c2ccncc2)c(=O)c2cc(C)ccc21` the survival was inactive: 81%.

Source: PubChem BioAssay AID463173 (ICCB-Longwood Screening Facility, Harvard Medical School, 2010)
